Assay results taken from PubChem BioAssay AID1745853 (National Center for Advancing Translational Sciences (NCATS), 2022).
Some of the results follow. Shown are side measurements of this screen, not its main read-out; they come without a call.

Columns and labels:
Test in all cases: Primary Screen for Target Class Profiling of Small Molecule Inhibitors of Methyltransferases
[1] = molecular target: Glycine N-methyltransferase (Homo sapiens) (UniProt Q14749); settings: purified enzyme, MTase-Glo SAH luminescence; measured here: GNMT inhibition; at 40 µM; stronger effect = lower value
Summary of the method: (§1)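 Each enzyme was assayed with SAM and its substrate. SAH formation detected by MTase-Glo luminescence; single-point 40 uM screen[…].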

[2] = molecular target: Guanidinoacetate N-methyltransferase (Homo sapiens) (UniProt Q14353); settings: purified enzyme, MTase-Glo SAH luminescence; measured here: GAMT inhibition; at 40 µM; stronger effect = lower value
Summary of the method: as §1

[3] = molecular target: Histamine N-methyltransferase (Homo sapiens) (UniProt P50135); settings: purified enzyme, MTase-Glo SAH luminescence; measured here: HNMT inhibition; at 40 µM; stronger effect = lower value
Summary of the method: as §1

[4] = molecular target: Nicotinamide N-methyltransferase (Homo sapiens) (UniProt P40261); settings: purified enzyme, MTase-Glo SAH luminescence; measured here: NNMT inhibition; at 40 µM; stronger effect = lower value
Summary of the method: as §1

[5] = molecular target: Phenylethanolamine N-methyltransferase (Homo sapiens) (UniProt P11086); settings: purified enzyme, MTase-Glo SAH luminescence; measured here: PNMT inhibition; at 40 µM; stronger effect = lower value
Summary of the method: as §1
On the % scale 0 is the no-effect control and ±100 the full control effect.

Row | SMILES | activity change, negative = inhibition [1] [%] | activity change, negative = inhibition [2] [%] | activity change, negative = inhibition [3] [%] | activity change, negative = inhibition [4] [%] | activity change, negative = inhibition [5] [%]
1 | CC(=O)Nc1c2n(c3ccc(F)cc13)CC(C)(C(=O)NC1CCCCC1)N(C1CCCC1)C2=O (stereo not given) | -8.47 | -4.33 | -3.75 | -3.98 | -0.657
2 | CCOC(=O)N1CCN(/[N+]([O-])=N/Oc2ccc([N+](=O)[O-])cc2[N+](=O)[O-])CC1 | -11.8 | 7.26 | 0.095 | -1.67 | 5.48
3 | COC(=O)c1ncn2c1C(=O)N(c1ccc3c(c1)OCO3)C(C)(C(=O)NCc1ccccc1)C2 (stereo not given) | -12.4 | -1.51 | -3.82 | -7.58 | -8.34
4 | Cc1cc(C)n(CC(=O)N2CCCC2c2nc(CCOCC3CCOCC3)no2)n1 (stereo not given) | -0.601 | 0.617 | 0.103 | 1.07 | -1.35
5 | Cc1ncc2n1C(=O)N(C1CCN(CC3CC3)CC1)C2 | -4.37 | -10.6 | -15.7 | -12.6 | -7.63
6 | CC1(C(=O)NC2CCCC2)Cn2c(cc3ccccc32)C(=O)N1Cc1cccnc1 (stereo not given) | -0.914 | 0 | 4.27 | 2.13 | -1.18
7 | CC(C)NCC(O)COc1ccc(CCOCC2CC2)cc1 (stereo not given) | 2.58 | 10.6 | 0.835 | -5.04 | 1.07
8 | COc1ccc2cc3n(c2c1)CC(C)(C(=O)NC1CCCC1)N(c1cc(C)cc(C)c1)C3=O (stereo not given) | -2.08 | 3.05 | 2.18 | -2.59 | -6
9 | COc1ccccc1N1CCN([C@@H]2[C@H](O)[C@H](CO)O[C@@H]2CNC(=O)c2ccccc2)CC1 | -6.56 | -7.87 | -3.96 | -17.5 | -7.27
10 | C[C@@H]1O[C@@H](O[C@H]2[C@H](O)[C@@H](O[C@@H]3O[C@H](CO)[C@H](O)[C@H](O)[C@H]3O)[C@H](O[C@H]3CC[C@@]4(C)C(CC[C@]5(C)C4CC=C4[C@@H]6CC(C)(C)CC[C@]6(C(=O)O[C@@H]6O[C@H](CO)[C@@H](O)[C@H](O)[C@H]6O)CC[C@]45C)C3(C)C)O[C@@H]2C(=O)O)[C@H](O)[C@H](O)[C@H]1O (stereo not given in full) | 0 | 7.91 | 9.79 | -2.33 | 10.9
11 | Cc1ccc(CNC(=O)Cn2nc3n(C)c(=O)c4ccc(C(=O)NC5CCCC5)cc4n3c2=O)cc1 | 5.63 | 0 | 3.12 | 6.33 | 5.3
12 | CCOCCCNC(=O)CCc1nnc2n(Cc3ccccc3Cl)c(=O)c3ccccc3n12 | -8.33 | 3.48 | 1.91 | 5.37 | -1.44
13 | COc1cccc(-c2nc3ccc(-c4ccc5c(c4)OCO5)cc3o2)c1OC | -4.04 | -2.28 | -1.63 | -0.009 | -2.49
14 | CC(C)CCn1c(=O)c2ccccc2n2c(SCC(=O)Nc3ccc(F)cc3)nnc12 | -1.46 | 5.57 | 1.17 | -16.6 | 2.71
15 | CCOC(=O)c1ccc(CNC(=O)c2cn(CCCc3ccccc3)nn2)o1 | -9.15 | -5.79 | -1.72 | -12.6 | -5.64
